These are yes or no findings as the source states them, for the method shown. Some binding calls cover weakened binding; strength is not graded here. For part of these data: Where a sequence is shown, tags or fusion partners need not be part of it.
What was measured:
[1] = target: B7-H4 (Acro Biosystems, #B74-H82E2) (UniProt Q7Z7D3); test: BLI, B7-H4 captured on SA sensor
[2] = target: Human B7-2/CD86 Protein, Fc Tag (Acro CD6-H5257) (human) (UniProt P42081); test: ELISA, plate coated with 1 µg/mL B7 family protein
[3] = target: Human PD-L1/B7-H1 Protein, His Tag (Acro PD1-H5229) (human) (UniProt Q9NZQ7); test: ELISA, plate coated with 1 µg/mL B7 family protein
[4] = target: Human B7-1/CD80 Protein, Fc Tag (Acro B71-H5259) (human) (UniProt P33681); test: ELISA, plate coated with 1 µg/mL B7 family protein
[5] = target: T1, B7-H6/NCR3LG1 Protein, Human, Recombinant (Fc Tag) (Sino Biological 16140-H02H) (human) (UniProt Q68D85); test: ELISA, plate coated with 1 µg/mL B7 family protein
T1 sequence (looked up): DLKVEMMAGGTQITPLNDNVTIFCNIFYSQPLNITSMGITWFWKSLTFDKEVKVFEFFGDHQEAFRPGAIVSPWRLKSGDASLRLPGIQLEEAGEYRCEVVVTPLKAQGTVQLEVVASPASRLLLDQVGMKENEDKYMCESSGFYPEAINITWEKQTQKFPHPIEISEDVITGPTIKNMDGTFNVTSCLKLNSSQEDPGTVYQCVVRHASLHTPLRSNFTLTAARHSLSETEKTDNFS

Sequences of proteins named here, by UniProt entry; tags and fusion partners are left off. A change or cut given only in a name is not applied to a line headed by its entry. Residues count along the entry.
UniProt P42081, residues 26-247: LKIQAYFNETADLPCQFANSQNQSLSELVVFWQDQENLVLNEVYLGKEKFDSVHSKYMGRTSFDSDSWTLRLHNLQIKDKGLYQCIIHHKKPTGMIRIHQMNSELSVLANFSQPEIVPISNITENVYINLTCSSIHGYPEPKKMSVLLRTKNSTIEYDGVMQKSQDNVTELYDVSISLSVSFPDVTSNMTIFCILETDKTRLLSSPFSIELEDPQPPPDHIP
UniProt Q9NZQ7: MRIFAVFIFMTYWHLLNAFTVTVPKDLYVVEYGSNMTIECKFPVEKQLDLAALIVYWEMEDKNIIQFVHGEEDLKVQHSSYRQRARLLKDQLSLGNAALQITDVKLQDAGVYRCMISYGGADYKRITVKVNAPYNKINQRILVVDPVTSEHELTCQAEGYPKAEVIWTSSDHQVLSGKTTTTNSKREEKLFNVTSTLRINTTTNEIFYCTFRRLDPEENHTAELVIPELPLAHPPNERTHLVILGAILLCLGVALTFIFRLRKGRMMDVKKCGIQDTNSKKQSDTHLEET
UniProt Q9H7M9, residues 33-194: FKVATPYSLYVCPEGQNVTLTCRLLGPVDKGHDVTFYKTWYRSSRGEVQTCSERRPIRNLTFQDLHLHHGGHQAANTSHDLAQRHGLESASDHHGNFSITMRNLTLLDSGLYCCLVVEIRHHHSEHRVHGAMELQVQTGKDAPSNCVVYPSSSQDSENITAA

[6] = target: T2, Human B7-DC/PD-L2/CD273 Protein, Recombinant (Fc Tag) (Sino Biological H10292-H02H) (human) (UniProt Q9BQ51); test: ELISA, plate coated with 1 µg/mL B7 family protein
T2 sequence (looked up): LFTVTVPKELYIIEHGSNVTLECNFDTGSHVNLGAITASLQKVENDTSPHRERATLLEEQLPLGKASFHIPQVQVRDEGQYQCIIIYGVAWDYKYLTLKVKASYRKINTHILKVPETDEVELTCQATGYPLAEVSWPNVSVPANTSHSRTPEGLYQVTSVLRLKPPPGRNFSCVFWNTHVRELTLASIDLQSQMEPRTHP

[7] = target: T3, Recombinant human B7H7/HHLA2 Fc Chimera (R&D 8084-B7-050) (human) (UniProt Q9UM44); test: ELISA, plate coated with 1 µg/mL B7 family protein
T3 sequence (looked up): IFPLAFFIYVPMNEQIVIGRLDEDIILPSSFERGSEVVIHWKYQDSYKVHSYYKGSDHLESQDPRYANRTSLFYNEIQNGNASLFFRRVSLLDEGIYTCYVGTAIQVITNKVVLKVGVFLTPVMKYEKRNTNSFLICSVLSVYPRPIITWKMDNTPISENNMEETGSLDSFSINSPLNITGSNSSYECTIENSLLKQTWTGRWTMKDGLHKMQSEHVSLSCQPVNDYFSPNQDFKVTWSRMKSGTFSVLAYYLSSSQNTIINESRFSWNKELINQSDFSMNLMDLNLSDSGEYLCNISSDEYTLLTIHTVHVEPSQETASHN

[8] = target: T4, B7-H3/CD276 Protein, Human, Recombinant (ECD, Fc Tag) (Sino Biological 11188-H02H) (human) (UniProt Q5ZPR3); test: ELISA, plate coated with 1 µg/mL B7 family protein
T4 sequence (looked up): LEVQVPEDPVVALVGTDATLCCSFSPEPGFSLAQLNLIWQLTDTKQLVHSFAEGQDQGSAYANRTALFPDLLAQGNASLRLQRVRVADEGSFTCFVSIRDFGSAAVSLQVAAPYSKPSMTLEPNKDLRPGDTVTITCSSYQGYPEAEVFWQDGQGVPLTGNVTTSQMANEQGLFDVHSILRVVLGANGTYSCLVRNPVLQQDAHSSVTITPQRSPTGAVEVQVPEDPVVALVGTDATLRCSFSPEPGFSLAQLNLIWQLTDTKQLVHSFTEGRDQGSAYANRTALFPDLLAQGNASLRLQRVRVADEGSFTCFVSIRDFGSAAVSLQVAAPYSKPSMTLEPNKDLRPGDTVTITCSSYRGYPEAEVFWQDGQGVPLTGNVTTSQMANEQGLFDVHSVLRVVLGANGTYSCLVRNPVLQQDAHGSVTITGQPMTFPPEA

[9] = target: T5, CD275/ICOS ligand Protein, Human, Recombinant (Fc Tag) (Sino Biological 11559-H02H) (human) (UniProt O75144); test: ELISA, plate coated with 1 µg/mL B7 family protein
T5 sequence (looked up): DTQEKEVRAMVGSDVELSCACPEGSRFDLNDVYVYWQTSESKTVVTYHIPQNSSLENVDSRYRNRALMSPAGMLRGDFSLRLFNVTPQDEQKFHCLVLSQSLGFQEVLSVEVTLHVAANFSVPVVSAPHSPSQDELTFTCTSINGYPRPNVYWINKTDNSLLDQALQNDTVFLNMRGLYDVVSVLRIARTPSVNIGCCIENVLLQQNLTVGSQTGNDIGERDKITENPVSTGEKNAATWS

[10] = target: Recombinant human VISTA/B7H5/PD-1H Fc Chimera (R&D 7126-B7-050) (human) (UniProt Q9H7M9); test: ELISA, plate coated with 1 µg/mL B7 family protein
[11] = target: cynomolgus monkey B7H4 on the cell surface (cynomolgus monkey); test: FACS, CHOK1/cyno B7H4 cells (FIG. 3)
[12] = target: T6, human B7-H4 (recombinant protein of the BLI affinity assay, Example 7.2) (human) (UniProt Q7Z7D3); test: BLI (Octet Red 96e)
T6 sequence (looked up): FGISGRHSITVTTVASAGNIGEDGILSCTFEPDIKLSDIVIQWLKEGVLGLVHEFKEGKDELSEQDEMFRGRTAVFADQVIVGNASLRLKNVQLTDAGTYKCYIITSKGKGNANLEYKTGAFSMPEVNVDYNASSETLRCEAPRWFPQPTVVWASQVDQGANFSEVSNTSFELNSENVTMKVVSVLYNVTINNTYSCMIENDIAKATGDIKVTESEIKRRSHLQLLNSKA

B1: Control antibody 2 (PR002962) (antibody, human IgG1, kappa, V domains shown)
VH: QLQLQESGPGLVKPSETLSLTCTVSGGSIKSGSYYWGWIRQPPGKGLEWIGNIYYSGSTYYNPSLRSRVTISVDTSKNQFSLKLSSVTAADTAVYYCAREGSYPNQFDPWGQGTLVTVSS
VL: EIVMTQSPATLSVSPGERATLSCRASQSVSSNLAWYQQKPGQAPRLLIYGASTRATGIPARFSGSGSGTEFTLTISSLQSEDFAVYYCQQYHSFPFTFGGGTKVEIKR
Q: For B1, which binding [1] is on record?
A: binds

Q: And the binding [2]?
A: no binding (tested: 10 nM)

Q: What about the binding [3] of the same binder?
A: no binding (tested: 10 nM)

Q: What about the binding [4] of the same binder?
A: no binding (tested: 10 nM)

Q: What about the binding [5] of the same binder?
A: no binding (tested: 10 nM)

Q: What about the binding [6] of the same binder?
A: no binding (tested: 10 nM)

Q: What about the binding [7] of the same binder?
A: no binding (tested: 10 nM)

Q: And the binding [8]?
A: no binding (tested: 10 nM)

Q: And the binding [9]?
A: no binding (tested: 10 nM)

Q: What about the binding [10] of the same binder?
A: no binding (tested: 10 nM)

B2: PR002038 (antibody, human IgG1, kappa, V domains shown)
VH: QVQLVQSGAEVKKPGSSMRVSCKASEDTFSSYAISWVRQAPGQGLEWMGGTAPIFGTTNYAQKFQGRVTITADKSTSTAYMELSSLRSEDTAVYYCARGGPYFDYWGQGTLVTVSS
VL: DIQLTQSPATLSVSPGERATLSCRASQSVSSNLAWYQQKPGQAPRLLIYGDYIRATGIPARFSGSGSGTEFTLTISSLQSEDIATYYCQQYVDLPITFGQGTRLEIKR
Q: With B2 as the binder, how does the binding [11] read?
A: binds

B3: PR003369 (antibody, human IgG1, kappa, V domains shown)
VH: QVQLVESGGGVVQPGRSLRLSCAASGFTFRSFGMHWVRQAPGKGLEWVAVISYDASNEYYADSVKGRFIISRDNSKDTLYLQMNSLRAGDTAVYYCAKGGALRWYFAYWGQGTLVTVSS
VL: EIVMTQSPATLSVSPGERATLSCRASQSISSNLGWYQQKPGQAPRLLIYGASTRATGIPARFSGSGSGTEFTLTISSLQSEDFAVYYCQQYRSWPPLTFGGGTKVEIKR
Q: With B3 as the binder, how does the binding [12] read?
A: binds
